# Screen size: about 110,000 compounds; about 40 (0.04%) were called active. Inconclusive means that the source gave no clear call. Such entries were picked first, then a sample of the others. Calls follow the shape of the dose curve; as a rule, active = well fitted curve in the direction sought with a large enough effect in the signal ratio (not every such curve was filed as active); inconclusive = small, poorly fitted or top-dose-only effect, or a change in a side signal; inactive = flat fitted curve, though single readings scatter; the % refers to the signal ratio.
# Experiment: IkB Signaling;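 also: 0% = basal untreated cells and 100% = reference inhibitor full response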
# Conditions: ABC-DLBCL IkBa-CBG/CBR dual luciferase ratio (green luciferase fused to IkBa over red control in OCI-Ly3 lymphoma cells), 4 h; IkBa stabilization activation: at 57.1 µM (top of the series), scaled: untreated 0%, proteasome inhibitor 100% unless noted
# Method in brief: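 Curves were fitted separately to fusion (green), unfused (red) and ratio luminescence, then classed by r2, magnitude and activity. Cells: OCI-Ly3, 4 h compound plus doxycycline at 37C; 10 uM MG-132 defined full response.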
row,SMILES,IkBa stabilization activation
1,Cc1ccc(C)c2[nH]c(=O)c(CN(Cc3ccco3)C(=O)Nc3ccccc3)cc12,inconclusive: -0.516% [signal inhibitor]
2,Cc1ccc(NC(=O)C2CCN(S(=O)(=O)c3cccc4nonc34)CC2)c(Cl)c1,inactive: -0.0533%
3,COc1ccc(-c2nnc(SCC(=O)N3CCc4ccccc4C3)o2)cc1,inconclusive: 4.53% [signal inhibitor]
4,CCN(CC)C(=O)Cn1nc(-c2ccccc2O)nc1SCC(=O)Nc1ccc(OC)cc1,inconclusive: 2.25% [signal inhibitor]
5,COc1ccc(C2=NCC(CSc3nnc(-c4ccc5c(c4)OCO5)o3)S2)cc1 (stereo not given),inconclusive: 1.51% [signal inhibitor]
6,CC(C)Sc1nc(-c2cccs2)nc2c1c(=O)n(C)c(=O)n2C,inactive: -0.451%
7,C=CCc1c(C)nc(SC)nc1Nc1ccc(C(=O)O)cc1,inactive: 0.782%
8,Cc1c(C(=O)Nc2cccc(F)c2)oc2c1-c1nn(Cc3c(F)cccc3Cl)cc1CC2,inactive: 1.21%
9,Cc1oc2ccc(O)c(CN3CCN(Cc4ccccc4)CC3)c2c1C(=O)Nc1ccccc1,inconclusive: 3.98% [signal inhibitor]
10,CCn1c2ccccc2c2nnc(SCc3ccccc3)nc21,inconclusive: 4.34% [signal inhibitor]
11,COCCCNC(=O)c1c(N)n(-c2cccc(S(N)(=O)=O)c2)c2nc3ccccc3nc12,inactive: -1.27%
12,COS(C)(=O)=O,inactive: -0.146%
13,O=C(CSc1nnc(-c2cccs2)n1Cc1ccco1)Nc1ccc2c(c1)OCO2,inconclusive: 1.25% [signal inhibitor]
14,Cc1cc(C)c(S(=O)(=O)NCCc2cc3cc(C)c(C)cc3[nH]c2=O)c(C)c1,inconclusive: 6.29% [signal inhibitor]
15,O=S(=O)(NCCc1nnc2ccc(SCc3ccc(C(F)(F)F)cc3)nn12)c1ccccc1,inconclusive: -2.74% [signal inhibitor]
16,COC(=O)c1[nH]c2ccc(C)cc2c1NC(=O)CN1CCN(c2ccccc2)CC1,inconclusive: -1.84% [signal inhibitor]
17,CC(C)OCCCNc1sc(S(=O)(=O)c2ccccc2)nc1S(=O)(=O)c1ccc(Cl)cc1,inconclusive: 2.04% [signal inhibitor]
18,Oc1cc2c(cc1O)[C@H]1c3ccc(O)c(O)c3OC[C@@]1(O)C2,inconclusive: 13% [signal inhibitor]
19,CCOc1ccccc1NC(=O)CSc1nc2c(oc3ccccc32)c(=O)n1C(C)C,inconclusive: 1.42% [signal inhibitor]
20,COCCCNC(=O)c1cc(-c2ccc(OC)cc2)nc2n[nH]c(-c3ccc(Cl)cc3)c12,inactive: 0.0101%
